Data published in PMC5737669 (Nucleic Acids Research, 2017).

Biological target: T1, Clp1 (Saccharomyces cerevisiae, UniProt Q08685 1-445)
T1 sequence (looked up): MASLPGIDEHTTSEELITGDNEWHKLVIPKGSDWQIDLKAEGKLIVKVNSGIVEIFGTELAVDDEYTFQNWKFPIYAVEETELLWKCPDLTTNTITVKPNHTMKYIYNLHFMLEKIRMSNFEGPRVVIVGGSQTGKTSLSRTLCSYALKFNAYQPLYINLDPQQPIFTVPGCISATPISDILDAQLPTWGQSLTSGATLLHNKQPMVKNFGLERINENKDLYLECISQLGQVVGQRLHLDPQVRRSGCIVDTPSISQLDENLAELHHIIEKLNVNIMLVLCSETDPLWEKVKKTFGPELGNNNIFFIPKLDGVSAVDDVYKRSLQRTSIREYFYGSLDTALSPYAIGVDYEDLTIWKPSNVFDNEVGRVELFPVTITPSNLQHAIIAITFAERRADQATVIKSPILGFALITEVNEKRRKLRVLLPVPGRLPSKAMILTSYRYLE
Test: recombinant sub-complex obtained as a heterodimer

- binding result: binds
B1: Pcf11 ([…]) (domain or fragment)
chain: not shown
